# Values joined by “and” are separate entries in the source; they are usually repeats but may differ in a detail not shown here. Equal entries are not always repeated. Inconclusive means that the source gave no clear call. Such entries were picked first, then a sample of the others. A potency beside an inconclusive call is a rough fit, not a confirmed value. Active and inactive are the calls of the source. The call rests on the fitted dose curve; in most records, active means well fitted curve in the direction sought with a large enough effect; inconclusive means small, poorly fitted or top-dose-only effect, or another doubt; inactive means no such curve, though single readings can be large; an effect the other way counts as inactive or inconclusive.
# Assays:
# [1] = biological target: Cytochrome P450 3A7 (Homo sapiens) (UniProt P24462); assay: Cytochrome P450 family 3 subfamily A member 7 (CYP3A7) small molecule antagonists: luciferase biochemical qHTS assay (AID 1963596); further: nearly all actives have a fitted effect of over 40% in size
# UniProt P24462, sequence (P24462 whole entry, looked up): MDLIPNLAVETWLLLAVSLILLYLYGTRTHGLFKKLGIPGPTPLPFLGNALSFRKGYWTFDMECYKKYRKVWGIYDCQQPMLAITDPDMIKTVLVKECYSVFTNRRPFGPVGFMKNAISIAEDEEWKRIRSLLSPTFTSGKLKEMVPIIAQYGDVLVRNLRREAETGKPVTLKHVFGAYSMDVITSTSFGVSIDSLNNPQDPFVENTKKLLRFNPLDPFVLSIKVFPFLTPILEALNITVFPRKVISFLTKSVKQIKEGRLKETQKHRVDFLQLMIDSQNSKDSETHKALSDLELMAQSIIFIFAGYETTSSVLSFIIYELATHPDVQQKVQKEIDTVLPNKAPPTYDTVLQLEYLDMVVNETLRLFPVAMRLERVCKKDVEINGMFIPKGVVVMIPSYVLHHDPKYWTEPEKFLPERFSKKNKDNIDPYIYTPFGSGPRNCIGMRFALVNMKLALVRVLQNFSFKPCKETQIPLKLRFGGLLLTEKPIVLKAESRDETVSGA
# Summary of the method: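 Biochemical CYP3A7 activity measured with P450-Glo system: luciferin formed from proluciferin substrate in NADPH-driven reaction (1 h, room temperature) after 10 min compound preincubation. Signal in relative luminescence units.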
# [2] = Viability qHTS for spleen associated tyrosine kinase inhibitor (SYKi) naive MV4-11 cells (AID 1963823); conditions: MV4-11 AML viability, CellTiter-Glo luminescence, 72 h; series mostly up to 45 µM; further: nearly all actives have a fitted effect of over 40% in size
# Summary of the method: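 qHTS, SYK inhibitor-naive MV4-11; 500 cells/well; 72 hr compound exposure, 37 C; CellTiter-Glo added, 10 min RT; luminescence read.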
# [3] = Viability qHTS for spleen associated tyrosine kinase inhibitor (SYKi) drug resistant MV4-11 cells (AID 1963824); further: nearly all actives have a fitted effect of over 35% in size
# Summary of the method: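 CellTiter-Glo luminescence, read 10 min after reagent addition, reports viability after a 72 hr compound exposure. Cells are an MV4-11 line made resistant to SYK inhibition, seeded at 500 per well onto compound-containing plates.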
# [4] = Quantitative highthroughput screen to assess conditional lethalithy of NOMO1 cells grown in Human Plasma-Like Medium with dialyzed fetal bovine serum (HPLM+ds) (AID 1963878); conditions: NOMO1 AML cells in HPLM+ds, CellTiter-Glo viability, 48 h; viability: at 45.8 µM (top of the series); further: nearly all actives have a fitted effect of over 35% in size
# Summary of the method: (§1)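 Each medium arm—HPLM with 10% dialyzed FBS, or RPMI1640 with 5 mM glucose and 10% untreated or dialyzed FBS—was screened against an 11-point, 3-fold compound titration for 48 h at 37 °C, with CellTiter-Glo luminescence as endpoint.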
# [5] = Quantitative highthroughput screen to assess conditional lethalithy of P12 Ichikawa cells grown in Human Plasma-Like Medium with dialyzed fetal bovine serum (HPLM+ds) (AID 1963879); conditions: Potency: viability; further: nearly all actives have a fitted effect of over 35% in size
# Summary of the method: as §1
# [6] = Quantitative highthroughput screen to assess conditional lethalithy of SEM cells grown in Human Plasma-Like Medium with dialyzed fetal bovine serum (HPLM+ds) (AID 1963882); further: nearly all actives have a fitted effect of over 35% in size
# Summary of the method: as §1
# [7] = Quantitative highthroughput screen to assess conditional lethalithy of SEM cells grown in RPMI1640 with unreated serum (RPMI+s) (AID 1963883); conditions: SEM B-ALL cells, CellTiter-Glo viability, 48 h; viability: at 45.8 µM (top of the series); further: nearly all actives have a fitted effect of over 35% in size
# Summary of the method: as §1
# [8] = Quantitative highthroughput screen to assess conditional lethalithy of SEM cells grown in RPMI1640 with dialyzed fetal bovine serum (RPMI+ds) (AID 1963884); conditions: SEM B-ALL cells, RPMI+dialyzed FBS, CellTiter-Glo viability, 48 h; viability: at 45.8 µM (top of the series); further: nearly all actives have a fitted effect of over 35% in size
# Summary of the method: as §1
# [9] = Cellular viability qHTS for adrenocortical cancer (ACC) cell line NCI-H295R (AID 1963990); conditions: CellTiter-Glo ATP luminescence, 48 h; series mostly up to 46.1 µM; further: nearly all actives have a fitted effect of over 60% in size
# Summary of the method: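 Adrenocortical carcinoma cells, suspended at 300 000 cells/mL in serum-free DMEM plus ITS, rested overnight before pin transfer of compound. After two days' incubation, ATP-dependent luminescence was recorded and curve-fitted.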
# [10] = Quantitative highthroughput screen to assess conditional lethalithy of NOMO1 cells grown in RPMI1640 with untreated serum (RPMI+s) (AID 1963876); conditions: NOMO1 AML cells in RPMI+serum, CellTiter-Glo viability, 48 h; viability: at 45.8 µM (top of the series); further: nearly all actives have a fitted effect of over 35% in size
# Summary of the method: as §1
# [11] = Quantitative highthroughput screen to assess conditional lethalithy of NOMO1 cells grown in RPMI1640 with dialyzed fetal bovine serum (RPMI+ds) (AID 1963877); further: nearly all actives have a fitted effect of over 30% in size
# Summary of the method: as §1
# [12] = Quantitative highthroughput screen to assess conditional lethalithy of P12 Ichikawa cells grown in RPMI1640 with dialyzed fetal bovine serum (RPMI+ds) (AID 1963880); conditions: Potency: P12-Ichikawa viability; further: nearly all actives have a fitted effect of over 35% in size
# Summary of the method: as §1
# [13] = Quantitative highthroughput screen to assess conditional lethalithy of P12 Ichikawa cells grown in RPMI1640 with untreated serum (RPMI+s) (AID 1963881); conditions: Potency: viability; further: nearly all actives have a fitted effect of over 35% in size
# Summary of the method: as §1
# [14] = Cellular viability qHTS for adrenocortical cancer (ACC) cell line SW-13 (AID 1963989); conditions: SW-13 ACC cells viability, CellTiter-Glo, 48 h; activity (max response): stronger effect = lower value; further: nearly all actives have a fitted effect of over 65% in size
# Summary of the method: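 IC50 and maximal-response values come from four-parameter logistic fits of titration data. SW-13 cells in serum-free medium received compounds (up to 46 uM final) for 48 h before CellTiter-Glo luminescence.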
# Potency means the concentration at half of the fitted maximal effect; tags describe the fitted curve by direction and shape.
structure (smiles),measurement,setting,value
CCN(CC)CCNC(=O)COc1ccc(OC)cc1,Potency,[1],"inconclusive: 1.55 µM [inhibitor, full curve, poor fit]"
same,Potency,[2],"inconclusive: 15 µM [cytotoxic, single point]"
same,Potency,[3],"inconclusive: 13.3 µM [cytotoxic, partial curve, poor fit]"
COc1cc(-n2cnc3cc(-c4ccc(Cl)cc4)sc3c2=O)ccc1OCCN1CCCC1,Potency,[1],"inconclusive: 26.8 µM [inhibitor, single point]"
same,Potency,[2],"inconclusive: 4.11 µM [cytotoxic, full curve]"
same,Potency,[3],"inconclusive: 4.11 µM [cytotoxic, full curve]"
O=C(CC(c1ccccc1)c1ccccc1)N1CCN(C(c2ccccc2)c2ccccc2)CC1,Potency,[1],"inconclusive: 0.0891 µM [inhibitor, full curve]"
same,Potency,[2],active: 13 µM
same,Potency,[3],active: 10.3 µM
Cc1nc2c(C(F)(F)F)cccc2nc1-c1ccc(-c2cccc(S(C)(=O)=O)c2)cc1,Potency,[1],"inconclusive: 15.1 µM [inhibitor, partial curve, poor fit]"
same,Potency,[2],"inconclusive: 1.84 µM [cytotoxic, full curve]"
same,Potency,[3],"inconclusive: 1.64 µM [cytotoxic, full curve]"
CCC1Nc2cc(Cl)c(S(N)(=O)=O)cc2S(=O)(=O)N1 (configuration not stated),Potency,[1],"inconclusive: 30.9 µM [inhibitor, single point]"
same,Potency,[2],inactive
same,Potency,[3],inactive
CCCCCN(CCCOC)C(=O)C(CCC(=O)O)NC(=O)c1ccc(Cl)c(Cl)c1 (configuration not stated),Potency,[1],"inconclusive: 21.9 µM [inhibitor, single point]"
same,Potency,[2],inactive
same,Potency,[3],inactive
CNC(=O)c1cc(Oc2ccc(NC(=O)c3cccc(C(F)(F)F)c3)cc2)ccn1,Potency,[1],"inconclusive: 33.8 µM [inhibitor, single point]"
same,Potency,[2],active: 11.6 µM
same,Potency,[3],active: 11.6 µM
CC(S)C(=O)NCC(=O)O (configuration not stated),Potency,[1],inactive
same,Potency,[2],"inconclusive: 16.8 µM [cytotoxic, partial curve, poor fit] and inconclusive: 11.8 µM [cytotoxic, single point]"
same,Potency,[3],"inconclusive: 18.8 µM [cytotoxic, single point] and inconclusive: 10.5 µM [cytotoxic, single point]"
same,Potency,[4],"inconclusive: 13.2 µM [cytotoxic, partial curve, poor fit]"
same,Potency,[5],inactive
same,Potency,[6],"inconclusive: 0.0093 µM [rising, full curve, poor fit]"
same,Potency,[7],"inconclusive: 0.0105 µM [rising, full curve, poor fit]"
same,Potency,[8],"inconclusive: 0.0105 µM [rising, full curve, poor fit]"
same,Potency,[9],"inconclusive: 8.2 µM [cytotoxic, partial curve] and inactive"
NCCO,Potency,[1],inactive
same,Potency,[2],"inconclusive: 34.4 µM [cytotoxic, partial curve, poor fit]"
same,Potency,[3],"inconclusive: 1.93 µM [cytotoxic, partial curve, poor fit]"
CS(=O)(=O)OCCCCOS(C)(=O)=O,Potency,[1],inactive
same,Potency,[2],"inconclusive: 23.7 µM [cytotoxic, single point] and inconclusive: 29.5 µM [cytotoxic, single point]"
same,Potency,[3],"inconclusive: 26.6 µM [cytotoxic, single point] and inconclusive: 9.34 µM [cytotoxic, full curve]"
same,Potency,[10],"inconclusive: 23.5 µM [cytotoxic, single point]"
same,Potency,[11],"inconclusive: 37.2 µM [cytotoxic, single point]"
same,Potency,[4],"inconclusive: 26.4 µM [cytotoxic, partial curve, poor fit]"
same,Potency,[5],"inconclusive: 37.2 µM [cytotoxic, single point]"
same,Potency,[12],"inconclusive: 29.6 µM [cytotoxic, single point]"
same,Potency,[13],"inconclusive: 23.5 µM [cytotoxic, single point]"
same,Potency,[6],"inconclusive: 20.9 µM [cytotoxic, partial curve]"
same,Potency,[8],active: 20.9 µM
same,Potency,[14],"inconclusive: 20.6 µM [cytotoxic, partial curve, poor fit]"
Cc1ccc2nc(NC(=O)CSc3nc4c(c(=O)n3-c3ccccc3)SCC4)sc2c1,Potency,[1],"inconclusive: 17.8 µM [inhibitor, partial curve]"
same,Potency,[2],"inconclusive: 4.17 µM [cytotoxic, full curve, poor fit]"
same,Potency,[3],"inconclusive: 4.68 µM [cytotoxic, full curve, poor fit]"
same,Potency,[10],"inconclusive: 23.5 µM [cytotoxic, partial curve]"
same,Potency,[11],"inconclusive: 33.2 µM [cytotoxic, partial curve, poor fit]"
same,Potency,[4],"inconclusive: 23.5 µM [cytotoxic, partial curve, poor fit]"
same,Potency,[5],"inconclusive: 26.4 µM [cytotoxic, partial curve]"
same,Potency,[12],"inconclusive: 18.7 µM [cytotoxic, partial curve]"
same,Potency,[13],"inconclusive: 20.9 µM [cytotoxic, partial curve]"
same,Potency,[6],"inconclusive: 16.6 µM [cytotoxic, partial curve]"
same,Potency,[7],active: 16.6 µM
same,Potency,[8],active: 20.9 µM
